{"source": "PubChem BioAssay AID1347073", "about": "(National Center for Advancing Translational Sciences (NCATS), 2019)", "note": "The whole screen tested about 45,000 compounds, of which about 200 (0.44%) were called active. Roughly 7% stayed inconclusive and do not appear here. The call rests on the fitted dose curve; in most records, active means well fitted activation curve with a large enough effect; inconclusive means small, poorly fitted or top-dose-only effect; inactive means no such curve, though single readings can be large or run the other way. The list shows a part of the results. Potency means the concentration at half of the fitted maximal effect."}
{"assay": "qHTS of TDP-43 Inhibitors: NCGC Sytravon Library Screen; further: nearly all actives have a fitted effect of over 55% in size; on growth rescue (activation): 0% is about no effect", "details": "yeast TDP-43 toxicity rescue, BacTiter-Glo growth, 24 h; series mostly up to 46.1 µM; growth rescue (activation): at the top concentration", "in_short": "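TDP-43-expressing yeast, pregrown in raffinose, seeded at OD600 0.02 in galactose medium with compound for 24 hr at 30 deg C. Growth read by BacTiter-Glo luminescence, so rescue of toxicity appears as activation.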"}
{"molecule": "COc1cc(/C=N/NC(=O)c2cccnc2)ccc1OCC(=O)Nc1c(C)cc(C)cc1C", "growth rescue (activation)": "inactive: -4.51%"}
{"molecule": "Cc1ccc(C)c(C(=O)COC(=O)CN2C(=O)C3C4CCC(C4)C3C2=O)c1", "note": "(configuration not stated)", "growth rescue (activation)": "inactive: 21.6%"}
{"molecule": "Cc1ccc2nc(-c3ccc(O)c(O)c3)cn2c1", "growth rescue (activation)": "inactive: -11.6%"}
{"molecule": "CC1CCCN(S(=O)(=O)c2ccc(N(C(=O)c3cnccn3)C(C(=O)NC3CCCCC3)c3cccs3)cc2)C1", "note": "(configuration not stated)", "growth rescue (activation)": "inactive: -1.93%"}
{"molecule": "O=C1c2ccccc2C(=O)N1Cc1cnc(N2CCN(c3ccccc3)CC2)s1", "growth rescue (activation)": "inactive: 7.31%"}
{"molecule": "CCOC(=O)C1(Cc2ccccc2)CCN(Cc2cccc3nccnc23)CC1", "growth rescue (activation)": "inactive: -1.33%"}
{"molecule": "CC(=O)Oc1ccc2c(=O)c(Oc3ccccc3[N+](=O)[O-])coc2c1", "growth rescue (activation)": "inactive: -11.8%"}
{"molecule": "Cc1ccc2nc(NCc3ccccc3)c(C=NCc3ccccc3)c(=O)n2c1", "growth rescue (activation)": "inactive: 16.9%"}
{"molecule": "C=CCc1c(C)c(C#N)c2nc3ccccc3n2c1N1CCCCC1", "growth rescue (activation)": "inactive: 15.1%"}
{"molecule": "CCOc1ccc(S(=O)(=O)NCc2ccc(Cl)cc2)c2cccnc12", "growth rescue (activation)": "inactive: 11.2%"}
{"molecule": "O=C(Cn1cnc2ccccc21)OCC(=O)N1CCCCC1", "growth rescue (activation)": "inactive: -1.24%"}
{"molecule": "CS(=O)(=O)Nc1ccccc1-c1ccc2nccn2c1", "growth rescue (activation)": "inactive: -6.77%"}
{"molecule": "O=C(OCC(=O)N1CCc2ccccc21)c1ccccc1F", "growth rescue (activation)": "inactive: 9.12%"}
{"molecule": "NS(=O)(=O)c1ccc(NC(=S)NCCc2ccccc2)cc1", "growth rescue (activation)": "inactive: -10.7%"}
{"molecule": "CC12CCC(C(=O)N(c3ccccc3Cl)C1=O)C2(C)C", "note": "(configuration not stated)", "growth rescue (activation)": "inactive: 14.8%"}
{"molecule": "COc1ccc(C(=O)Nc2ncc3c(n2)CC(C)CC3=O)cc1", "note": "(configuration not stated)", "growth rescue (activation)": "inactive: 12.3%"}
{"molecule": "CC(CNC(=O)CN1C(=O)NC2(CCCCC2C)C1=O)c1ccccc1", "note": "(configuration not stated)", "growth rescue (activation)": "inactive: 16.1%"}
{"molecule": "CN1CCN(C(=O)CSc2nc(-c3ccco3)cc(C(F)(F)F)n2)CC1", "growth rescue (activation)": "inactive: 9.51%"}
{"molecule": "COc1ccc(NC(=O)COc2ccc(C(=O)NC3CCCc4ccccc43)cc2OC)cc1", "note": "(configuration not stated)", "growth rescue (activation)": "inactive: 4.64%"}
{"molecule": "Cc1ccc(OC(=O)c2cccnc2)cc1", "growth rescue (activation)": "inactive: 22.1%"}
{"molecule": "c1ccc2[nH]c(NCc3ccc4c(c3)OCO4)nc2c1", "growth rescue (activation)": "inactive: 3.75%"}
{"molecule": "CCN(c1ccccc1)S(=O)(=O)c1ccc(OC)c(NC(=O)CNCCc2ccccc2)c1", "growth rescue (activation)": "inactive: 18.4%"}
{"molecule": "CCOc1ccc(C(O)(c2ccccc2)C(CN2CCCC2)c2ccccc2)cc1", "note": "(configuration not stated)", "growth rescue (activation)": "inactive: -4.22%"}
{"molecule": "COc1ccccc1NCCC(=O)OCC(=O)NC1CCCCC1", "growth rescue (activation)": "inactive: 13.5%"}
{"molecule": "O=C(NCc1ccccc1)c1nc[nH]c1C(=O)NCc1ccccc1", "growth rescue (activation)": "inactive: 2.4%"}
{"molecule": "Cc1cc(C)c(C)c(S(=O)(=O)N2CCCCC2C(=O)O)c1C", "note": "(configuration not stated)", "growth rescue (activation)": "inactive: 10.1%"}
{"molecule": "CCn1cc(C(=O)O)c(=O)c2cc(F)c(N3CCN(C(=S)NC(=O)c4ccccc4F)CC3)cc21", "growth rescue (activation)": "inactive: 3%"}
{"molecule": "COc1ccc(Cl)cc1C(=O)OCC(=O)NC1CCCC(C)C1C", "note": "(configuration not stated)", "Potency": "active: 17.8 µM"}
{"molecule": "Cc1cc(=O)[nH]c(N/N=C/c2cc(C)n(-c3ccccc3)c2C)n1", "growth rescue (activation)": "inactive: -14.3%"}
{"molecule": "CCC/C=N/NC(=O)c1ccccc1O", "growth rescue (activation)": "inactive: 14.3%"}
{"molecule": "CC(NC(=O)c1ccc(N(C)C)cc1)C1CC2CCC1C2", "note": "(configuration not stated)", "growth rescue (activation)": "inactive: 15.6%"}
{"molecule": "CC(=O)c1ccc(NC(=O)c2ccc(NC(=O)CCS(=O)(=O)c3cccs3)cc2)cc1", "growth rescue (activation)": "inactive: -4.46%"}
{"molecule": "CC(=O)NN=C1CCC(c2ccccc2)CC1", "note": "(configuration not stated)", "growth rescue (activation)": "inactive: 24.4%"}
{"molecule": "NC(=S)NN=Cc1ccc(-c2ccc(S(=O)(=O)Nc3ncccn3)cc2)o1", "growth rescue (activation)": "inactive: 23.5%"}
{"molecule": "O=Cc1cc(N=Nc2cccc(C(=O)O)c2)ccc1O", "growth rescue (activation)": "inactive: -14.9%"}
{"molecule": "COc1cc(/C=C/C(=O)O)cc(S(=O)(=O)Nc2cc(C(F)(F)F)ccc2N2CCOCC2)c1OC", "growth rescue (activation)": "inactive: 27.3%"}
{"molecule": "COc1cc(NC(=O)CSc2nc(C3CC3)nc3ccccc23)cc(OC)c1", "growth rescue (activation)": "inactive: 15.8%"}
{"molecule": "Cc1ccc(C(=O)C2=C(O)C(=O)N(Cc3cccnc3)C2c2ccc(N(C)C)cc2)o1", "note": "(configuration not stated)", "growth rescue (activation)": "inactive: -1.33%"}
{"molecule": "CCc1nc2c(OCC(=O)C(C)(C)C)cccn2c1N(C=O)Cc1ccc(OC)cc1", "growth rescue (activation)": "inactive: -2.99%"}
{"molecule": "CCC(=O)OCCNc1cc(SCCC(=O)OC)c2nonc2c1[N+](=O)[O-]", "growth rescue (activation)": "inactive: -1.19%"}
{"molecule": "CCOC(=O)C1C(c2ccc(Cl)cc2)NC(=S)NC1(O)C(F)(F)F", "note": "(configuration not stated)", "growth rescue (activation)": "inactive: 13.2%"}
{"molecule": "COCC1CCN(C(=O)C2CCC(=O)N(C3CCCCCC3)C2)CC1", "note": "(configuration not stated)", "growth rescue (activation)": "inactive: 8.25%"}
{"molecule": "O=c1cc(-c2ccccc2)c2cc3c(cc2[nH]1)OCCO3", "growth rescue (activation)": "inactive: -9.19%"}
{"molecule": "COc1ccc(/C=C2\\SC(=S)N(CCCC(=O)N3CCOCC3)C2=O)cc1OC", "growth rescue (activation)": "inactive: -6.06%"}
{"molecule": "O=C(NNC(=S)Nc1ccc(F)cc1)C1[C@H]2CCCC[C@@H]12", "note": "(some centres not stated)", "growth rescue (activation)": "inactive: 15.4%"}
{"molecule": "Cc1ccc(F)c(S(=O)(=O)NC(=O)C2(C)CCN2C(=O)Cc2ccccc2)c1", "note": "(configuration not stated)", "growth rescue (activation)": "inactive: 3.36%"}
{"molecule": "O=C(NCc1ccc(F)c(F)c1)c1cccc2c(-c3cccnc3)coc12", "Potency": "active: 10 µM"}
{"molecule": "Cc1ccn(CCNC(=O)C2CCC(=O)N(Cc3ccc(Cl)cc3)C2)n1", "note": "(configuration not stated)", "growth rescue (activation)": "inactive: -11.6%"}
{"molecule": "O=C(COC(=O)CNC(=O)c1ccccc1)Nc1ccc(F)c([N+](=O)[O-])c1", "growth rescue (activation)": "inactive: 0.233%"}
{"molecule": "O=C(CSc1nnc(Cc2csc(Nc3cccc(Cl)c3)n2)o1)N1CCc2ccccc21", "growth rescue (activation)": "inactive: 12.8%"}
{"molecule": "CC(C)(C)c1ccc(C2C(C(=O)c3ccco3)=C(O)C(=O)N2CC2CCCO2)cc1", "note": "(configuration not stated)", "growth rescue (activation)": "inactive: 29.9%"}
{"molecule": "O=C(Cn1cnc2cc([N+](=O)[O-])ccc2c1=O)Nc1cccc2ccccc12", "growth rescue (activation)": "inactive: -1.08%"}
